Data published in the supplement of paper PMC12355420.
Counter-ions that a name gives are not always drawn. The list shows a part of the results. Rule as the data show it: active = 0.5 or less and inactive = the rest. Many values rest on one well or one pass, so single values are uncertain.

Assays:
Details in all cases: 50 µM; 24 h
[1] = tested on: HeLa VPS33A reporter cells; test: relative cell viability (CellMask signal) vs DMSO (fraction of DMSO); higher = less cytotoxic;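 also: primary screen of an FDA-approved drug library in HeLa reporter cells in 96-well format, CellMask signal normalized to DMSO-treated wells set as 1, under 0.5 deemed highly cytotoxic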
[2] = tested on: HeLa VPS33A R498W KI + HA-SDC1-FLAG; test: relative GAG core protein HA-SDC1 amount per cell number vs DMSO (fraction of DMSO); higher = more SDC1 (GAG core protein);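 also: HA-SDC1 level read out by In-Cell Western staining with an anti-HA antibody against the N-terminal tag, screening FDA-approved library drugs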
[3] = tested on: HeLa VPS33A KO + NLuc-VPS33A R498W; test: relative mutant VPS33A R498W amount (NanoLuc luminescence) vs DMSO (fraction of DMSO); HeLa model of a glycosaminoglycan (GAG) storage disease; KI is knock-in and KO knock-out; SDC1 is syndecan 1; higher = higher mutant VPS33A level;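 also: screen of an FDA-approved drug library, NanoLuc luminescence read after lysing the treated cells, taken as a measure of mutant VPS33A protein stability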

SMILES | relative cell viability [1] | relative GAG core protein HA-SDC1 amount per cell number [2] | relative mutant VPS33A R498W amount [3]
Nc1ccn([C@@H]2O[C@H](CO)[C@@H](O)[C@@H]2O)c(=O)n1 [Cytarabine hydrochloride] | 1.24 | inactive: 0.694 | 0.56
Cc1cc(=O)oc2cc(O)ccc12 [4-Methylumbelliferone (4-MU)] | 1.07 | inactive: 0.946 | 0.675
Cc1ccc(Cl)c(Nc2ccccc2C(=O)O)c1Cl [Meclofenamate Sodium] | 1.04 | active: 0.423 | 0.461
CC1(C)S[C@@H]2[C@H](NC(=O)[C@H](C(=O)O)c3ccsc3)C(=O)N2[C@H]1C(=O)O [Ticarcillin sodium] | 1.16 | inactive: 0.698 | 1.25
C[C@@H](O)[C@@H]1NC(=O)[C@H](CCCCN)NC(=O)[C@@H](Cc2c[nH]c3ccccc23)NC(=O)[C@H](Cc2ccccc2)NC(=O)[C@@H](NC(=O)[C@H](N)Cc2ccccc2)CSSC[C@@H](C(=O)N[C@H](CO)[C@@H](C)O)NC1=O [Octreotide acetate] | 1.1 | inactive: 0.99 | 1.24
COc1cc(-c2coc3cc4c(c(OC)c3c2=O)OCO4)cc(OC)c1OC [Irisflorentin] | 1.02 | inactive: 0.758 | 1.12
COc1cccc(CCc2ccccc2OCC(CN(C)C)OC(=O)CCC(=O)O)c1 (stereo unspecified) [Sarpogrelate hydrochloride] | 1.01 | inactive: 0.703 | 0.798
